Assay results published in PubChem BioAssay (Tox21).
The shares of active, inactive and inconclusive entries below differ from those in the screen. No potency is given beside an inconclusive call; the fits are too rough. Calls of active or inactive are those of the source. Unless noted, the call rests on the fitted dose curve; in most records, active means well fitted curve in the direction sought with a large enough effect in the repeat runs; inconclusive means weak or mixed curves; inactive means no such curve, though single readings can be large; an effect the other way counts as inactive or inconclusive.

System: not listed separately
Assay: qHTS assay to identify small molecule antagonists of the thyroid receptor (TR) signaling pathway - cell viability counter screen (AID 743064); further: nearly all actives have a fitted effect of over 50% in size
Conditions: GH3.TRE-Luc viability, CellTiter-Fluor, 24 h; activity change, negative = cytotoxic: at 70.3 µM (top of the series) unless noted
Outline: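 Rat GH3 pituitary tumor cells stably expressing two TR response elements driving luciferase were plated, rested 4 h, then dosed with library compounds and T3 (1 nM final). After 23.5 h at 37 °C, CellTiter-Fluor was added for 30 min and fluorescence recorded.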
On the % scale 0 is the no-effect control and ±100 the full control effect; potency means the concentration at half of the fitted maximal effect; tags describe the fitted curve by direction and shape or compound fluorescence and quenching.

Structure (SMILES)	activity change, negative = cytotoxic	Potency
Cc1ccc(/C(=C\CN2CCCC2)c2cccc(/C=C/C(=O)O)n2)cc1	inactive: 17.8%	
CC(=O)Oc1cccc(C(=O)O)c1OC(C)=O		inconclusive [rising, single point]
CCc1cn([C@H]2C[C@H](O)[C@@H](CO)O2)c(=O)[nH]c1=O		inconclusive [rising, full curve, poor fit]
CN[C@@H]1[C@H](O[C@H]2[C@H](O[C@H]3[C@H](O)[C@@H](O)[C@H](N=C(N)N)[C@@H](O)[C@@H]3N=C(N)N)O[C@@H](C)[C@]2(O)C=O)O[C@@H](CO)[C@H](O)[C@H]1O		inconclusive [cytotoxic, partial curve, poor fit]
CCCCCCCCCCCCCCCCCC(=O)OCC(C)O (centres undefined)		inconclusive [cytotoxic, partial curve, poor fit]
O=C(O)[C@H]1CN(C/C=C/P(=O)(O)O)CCN1		inconclusive [rising, single point]
C=CCOc1ccc(CC(=O)O)cc1Cl		inconclusive [rising, full curve]
CCOc1ccc(S(=O)(=O)O)c2cccnc12		inconclusive [rising, single point]
C/C(=C(/CCO)SSCC1CCCO1)N(C=O)Cc1cnc(C)nc1N (centres undefined)		inconclusive [cytotoxic, partial curve, poor fit]
C[N+](C)(C)CCOP(=O)(O)OP(=O)([O-])OC[C@H]1O[C@@H](n2ccc(N)nc2=O)[C@H](O)[C@@H]1O		inconclusive [rising, partial curve, poor fit]
CN1c2c(nc(N)[nH]c2=O)NCC1CNc1ccc(C(=O)NC(CCC(=O)O)C(=O)O)cc1 (centres undefined)	inactive: 15.2%	
CCCCCCCCCCCCCCCC(=O)OC[C@@H](NC(=O)C(Cl)Cl)[C@H](O)c1ccc([N+](=O)[O-])cc1		inconclusive [rising, partial curve, poor fit]
CS(=O)(=O)OCC(O)C(O)COS(C)(=O)=O (centres undefined)		inconclusive [rising, full curve, poor fit]

System: not listed separately
Assay: qHTS assay to identify small molecule antagonists of the thyroid receptor (TR) signaling pathway (AID 743065); further: nearly all actives have a fitted effect of over 55% in size
Conditions: GH3.TRE-Luc, T3-stimulated luciferase inhibition, 23.5 h; series mostly up to 70.3 µM; activity, negative = inhibition: at the top concentration
Outline: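 GH3.TRE-Luc rat pituitary cells (two TREs driving luciferase) were dosed with compound, then stimulated with 1 nM T3 (final) for 23.5 h at 37 C. ONE-Glo luminescence was the read-out, with CellTiter-Fluor fluorescence as the cytotoxicity counter-screen.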

Structure (SMILES)	Potency	activity, negative = inhibition
CCC[C@@H]1C[C@@H](C(=O)N[C@@H]([C@H]2O[C@H](SC)[C@H](O)[C@@H](O)[C@H]2O)[C@H](C)Cl)N(C)C1	inconclusive [inhibitor, partial curve, poor fit]	
CCCCCCCCCCCCCCCCCC(=O)OCC(C)O (centres undefined)		inactive: 0.187%
O=C(O)COc1ccccc1/C=N/NC(=O)c1ccncc1		inactive: 8.36%
CCOc1ccc(S(=O)(=O)O)c2cccnc12		inactive: 14.2%
C/C(=C(/CCO)SSCC1CCCO1)N(C=O)Cc1cnc(C)nc1N (centres undefined)	inconclusive [inhibitor, single point]	
O=c1[nH]cnc2[nH]cc(CN3CCCCC3)c12		inactive: 0.0024%

Target: Estrogen receptor (Homo sapiens) (UniProt P03372)
Chain of UniProt P03372 (P03372 whole entry, looked up): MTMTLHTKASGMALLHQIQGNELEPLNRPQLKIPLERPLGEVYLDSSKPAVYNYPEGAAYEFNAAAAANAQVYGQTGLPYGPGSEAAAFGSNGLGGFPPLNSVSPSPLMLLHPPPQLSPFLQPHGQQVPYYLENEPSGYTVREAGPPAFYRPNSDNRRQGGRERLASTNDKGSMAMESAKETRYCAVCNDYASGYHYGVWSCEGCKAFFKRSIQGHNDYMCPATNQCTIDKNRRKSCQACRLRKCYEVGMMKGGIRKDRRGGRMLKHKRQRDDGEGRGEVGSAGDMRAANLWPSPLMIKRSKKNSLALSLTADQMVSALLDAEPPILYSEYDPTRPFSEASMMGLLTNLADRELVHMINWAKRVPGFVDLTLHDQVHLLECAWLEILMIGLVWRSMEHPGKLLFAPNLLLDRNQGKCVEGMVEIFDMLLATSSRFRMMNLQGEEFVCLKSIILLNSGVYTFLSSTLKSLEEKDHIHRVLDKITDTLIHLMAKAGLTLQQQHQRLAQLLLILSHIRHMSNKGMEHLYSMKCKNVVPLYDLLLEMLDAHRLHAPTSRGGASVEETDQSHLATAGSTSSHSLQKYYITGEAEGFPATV
Assay: qHTS assay to identify small molecule antagonists of the estrogen receptor alpha (ER-alpha) signaling pathway (AID 743069; active means well fitted curve in the direction sought with a large enough effect in the signal ratio in the repeat runs, not every such curve was filed as active; inconclusive means weak or mixed curves, or effect the other way; inactive means no such curve, though single readings can be large or run the other way; the % refers to the signal ratio)
Conditions: HEK293 ER-alpha-UAS-bla, beta-lactamase ratio, antagonist mode; activity, negative = inhibition: at 69.4 µM (top of the series) unless noted
Outline: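 Reporter cells (ER-alpha-bla, HEK293 background) are conditioned overnight in stripped-serum medium (2% charcoal-stripped FBS). Compound and 17beta-estradiol exposure runs 18 hr at 37C, 5% CO2.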

Structure (SMILES)	Potency	activity, negative = inhibition
CC(=O)Oc1cc(C)c(OC(C)=O)c2ccccc12	inconclusive [fluorescent, partial curve, poor fit]	
CCC[C@@H]1C[C@@H](C(=O)N[C@@H]([C@H]2O[C@H](SC)[C@H](O)[C@@H](O)[C@H]2O)[C@H](C)Cl)N(C)C1		inactive: -3.97%
C=CCOc1ccc(CC(=O)O)cc1Cl	inconclusive [activator]	
CC1(C)S[C@@H]2[C@H](NC(=O)C(C(=O)Oc3ccc4c(c3)CCC4)c3ccccc3)C(=O)N2[C@H]1C(=O)O (some centres undefined)		inactive: -19.7%
CC(C)C[C@@H](NC(=O)[C@@H](O)[C@H](N)Cc1ccccc1)C(=O)O	inconclusive [activator, partial curve]	

System: not listed separately
Assay: qHTS assay to identify small molecule antagonists of the estrogen receptor alpha (ER-alpha) signaling pathway - cell viability counter screen (AID 743074; calls by dose curve;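 further: HEK293 cells carrying ER-alpha-UAS-bla reporter stimulated with 17beta-estradiol; nearly all actives have a fitted effect of over 45% in size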)
Conditions: ERalpha-bla HEK293 viability, CellTiter-Glo luminescence, 18 h; series mostly up to 69.4 µM; activity, negative = cytotoxicity: at the top concentration

Structure (SMILES)	Potency	activity, negative = cytotoxicity
C/C(=C(/CCO)SSCC1CCCO1)N(C=O)Cc1cnc(C)nc1N (centres undefined)	inconclusive [cytotoxic, single point]	
CCOC(=O)[C@H](CCc1ccccc1)N[C@@H](C)C(=O)N1CC2(C[C@H]1C(=O)O)SCCS2	inconclusive [rising, full curve]	
NC(=O)c1ccc[n+]([C@@H]2O[C@H](COP(=O)([O-])OP(=O)(O)OC[C@H]3O[C@@H](n4cnc5c(N)ncnc54)[C@H](O)[C@@H]3O)[C@@H](O)[C@H]2O)c1	inconclusive [cytotoxic, partial curve, poor fit]	
O=c1[nH]cnc2[nH]cc(CN3CCCCC3)c12	inconclusive [cytotoxic, single point]	
CN[C@@H]1[C@H](O[C@H]2[C@H](O[C@H]3[C@H](O)[C@@H](O)[C@H](N=C(N)N)[C@@H](O)[C@@H]3N=C(N)N)O[C@@H](C)[C@]2(O)CO)O[C@@H](CO)[C@H](O)[C@H]1O		inactive: 3.52%
CN1c2c(nc(N)[nH]c2=O)NCC1CNc1ccc(C(=O)NC(CCC(=O)O)C(=O)O)cc1 (centres undefined)		inactive: 8.38%
CCCCCCCCCCCCCCCC(=O)OC[C@@H](NC(=O)C(Cl)Cl)[C@H](O)c1ccc([N+](=O)[O-])cc1	inconclusive [rising, single point]	
O=C(O)c1nc(=O)[nH]c(=O)[nH]1		inactive: 9.61%
NCCCNCCCCNC(=O)C(O)NC(=O)CCCCCCN=C(N)N (centres undefined)		inactive: 16.4%
CC(C)C[C@@H](NC(=O)[C@@H](O)[C@H](N)Cc1ccccc1)C(=O)O	inconclusive [cytotoxic, single point]	
